In publication PMC5700166:
This is a selection; strong and weak results do not stand in their true shares. The list includes weakly bound sequences.

These sequences were tested against T1, GST-Co-NF-kB (UniProt F1ARL5) (assay: protein-binding microarray (PBM)). Conditions: PBM: ~300 nM protein, 6 mM HEPES pH 7.8, 80 mM KCl, 0.5 mM EDTA, 0.5 mM EGTA, 6% glycerol, 35 ng/ul poly-dIdC, 1% milk, 1 h, room temperature; Ap Aiptasia and Nv Nematostella (sea anemones) / Co Capsaspora / Aq Amphimedon (sponge) / Dm Drosophila / Hu human; RHD is the Rel homology domain; high values mean tight binding; most listed sequences are background and not binding sites; double strand, one strand shown.
T1 sequence: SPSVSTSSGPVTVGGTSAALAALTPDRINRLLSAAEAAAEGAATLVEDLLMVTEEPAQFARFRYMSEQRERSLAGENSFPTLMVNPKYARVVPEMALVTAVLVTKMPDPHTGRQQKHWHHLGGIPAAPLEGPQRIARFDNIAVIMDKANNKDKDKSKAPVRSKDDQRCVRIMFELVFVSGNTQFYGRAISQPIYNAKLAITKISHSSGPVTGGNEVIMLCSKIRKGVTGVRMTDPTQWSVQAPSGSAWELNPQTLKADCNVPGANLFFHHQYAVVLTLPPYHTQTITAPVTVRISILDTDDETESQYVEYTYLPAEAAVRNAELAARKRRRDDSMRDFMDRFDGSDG
With “CCGATTAACATCACACAACCCCCTGATGTTAATCGGGTCTTGATTCGCTTGACGCTGCTG” the binding signal was 2.31 z-score. Sequence “CCGATTAACATCATTAGGGGAAGTGATGTTAATCGGGTCTTGATTCGCTTGACGCTGCTG” has a binding signal of 3.41 z-score. Work on “CCGATTAACATCAGAAGTTTCCCTGATGTTAATCGGGTCTTGATTCGCTTGACGCTGCTG” yielded a binding signal of 5.14 z-score. For “CCGATTAACATCAAATTTCCCCGTGATGTTAATCGGGTCTTGATTCGCTTGACGCTGCTG”, the binding signal was 9.87 z-score. “CCGATTAACATCAGGTAATTCCATGATGTTAATCGGGTCTTGATTCGCTTGACGCTGCTG” gave a binding signal of 0.673 z-score. Sequence “CCGATTAACATCAGGGGGGGGTATGATGTTAATCGGGTCTTGATTCGCTTGACGCTGCTG” has a binding signal of 5.96 z-score. Sequence “CCGATTAACATCAGGGGGGGCTATGATGTTAATCGGGTCTTGATTCGCTTGACGCTGCTG” has a binding signal of 5.06 z-score. Work on “CCGATTAACATCAGGGAATCTTATGATGTTAATCGGGTCTTGATTCGCTTGACGCTGCTG” yielded a binding signal of 3.74 z-score. For “CCGATTAACATCAACAAATCCCCTGATGTTAATCGGGTCTTGATTCGCTTGACGCTGCTG”, the binding signal was 4.14 z-score. Work on “CCGATTAACATCAAGAAGTTCCCTGATGTTAATCGGGTCTTGATTCGCTTGACGCTGCTG” yielded a binding signal of 2.42 z-score. With “CCGATTAACATCAAAAAATTACCTGATGTTAATCGGGTCTTGATTCGCTTGACGCTGCTG” the binding signal was 0.749 z-score. Work on “CCGATTAACATCAATTTTTCCCCTGATGTTAATCGGGTCTTGATTCGCTTGACGCTGCTG” yielded a binding signal of 11.2 z-score. Work on “CCGATTAACATCAACGCCCCCCCTGATGTTAATCGGGTCTTGATTCGCTTGACGCTGCTG” yielded a binding signal of 4.15 z-score. With “CCGATTAACATCAAATAAACCCCTGATGTTAATCGGGTCTTGATTCGCTTGACGCTGCTG” the binding signal was 2.32 z-score. Sequence “CCGATTAACATCAAAAATTTACCTGATGTTAATCGGGTCTTGATTCGCTTGACGCTGCTG” has a binding signal of 0.898 z-score. Work on “CCGATTAACATCAAGCCCCCCCTTGATGTTAATCGGGTCTTGATTCGCTTGACGCTGCTG” yielded a binding signal of 3.04 z-score. Sequence “CCGATTAACATCACGGCATTCCCTGATGTTAATCGGGTCTTGATTCGCTTGACGCTGCTG” has a binding signal of 1.73 z-score. With “CCGATTAACATCAAATTCCCTTATGATGTTAATCGGGTCTTGATTCGCTTGACGCTGCTG” the binding signal was 2.16 z-score. “CCGATTAACATCATGCGGGAAAATGATGTTAATCGGGTCTTGATTCGCTTGACGCTGCTG” showed a binding signal of 4.47 z-score. With “CCGATTAACATCACTAGTCCCCCTGATGTTAATCGGGTCTTGATTCGCTTGACGCTGCTG” the binding signal was 3.98 z-score. In the case of “CCGATTAACATCAGGGGGGAGACTGATGTTAATCGGGTCTTGATTCGCTTGACGCTGCTG”, the binding signal was 6.95 z-score. With “CCGATTAACATCAGGGATCACCCTGATGTTAATCGGGTCTTGATTCGCTTGACGCTGCTG” the binding signal was 1.02 z-score. In the case of “CCGATTAACATCAGGAAATGCCCTGATGTTAATCGGGTCTTGATTCGCTTGACGCTGCTG”, the binding signal was 0.242 z-score. With “CCGATTAACATCAATCTCCCCCCTGATGTTAATCGGGTCTTGATTCGCTTGACGCTGCTG” the binding signal was 8.72 z-score. With “CCGATTAACATCAGGGGAACATATGATGTTAATCGGGTCTTGATTCGCTTGACGCTGCTG” the binding signal was 7.58 z-score. Work on “CCGATTAACATCAGGGAAAAGTATGATGTTAATCGGGTCTTGATTCGCTTGACGCTGCTG” yielded a binding signal of 4.73 z-score. “CCGATTAACATCAGGTGTTTCCATGATGTTAATCGGGTCTTGATTCGCTTGACGCTGCTG” gave a binding signal of -0.357 z-score. “CCGATTAACATCAGGGGCTTCACTGATGTTAATCGGGTCTTGATTCGCTTGACGCTGCTG” gave a binding signal of 0.637 z-score. “CCGATTAACATCAGAGAAGTCCCTGATGTTAATCGGGTCTTGATTCGCTTGACGCTGCTG” showed a binding signal of 0.312 z-score. Sequence “CCGATTAACATCAGGCGAGTCCCTGATGTTAATCGGGTCTTGATTCGCTTGACGCTGCTG” has a binding signal of 0.0939 z-score. Work on “CCGATTAACATCAAGGGGGAAAATGATGTTAATCGGGTCTTGATTCGCTTGACGCTGCTG” yielded a binding signal of 9.03 z-score. Sequence “CCGATTAACATCAAAATGCCCCCTGATGTTAATCGGGTCTTGATTCGCTTGACGCTGCTG” has a binding signal of 4.18 z-score. With “CCGATTAACATCAGGGGGTTAGATGATGTTAATCGGGTCTTGATTCGCTTGACGCTGCTG” the binding signal was 1.94 z-score. “CCGATTAACATCAGGACAATCCCTGATGTTAATCGGGTCTTGATTCGCTTGACGCTGCTG” was tested, and the binding signal was 0.265 z-score. Sequence “CCGATTAACATCAGAATGCCCCCTGATGTTAATCGGGTCTTGATTCGCTTGACGCTGCTG” has a binding signal of 2.56 z-score. “CCGATTAACATCAAATATTCCCATGATGTTAATCGGGTCTTGATTCGCTTGACGCTGCTG” gave a binding signal of 3.51 z-score. “CCGATTAACATCAGAAATCCCCATGATGTTAATCGGGTCTTGATTCGCTTGACGCTGCTG” was tested, and the binding signal was 4.52 z-score. “CCGATTAACATCAGAAATGTCCCTGATGTTAATCGGGTCTTGATTCGCTTGACGCTGCTG” gave a binding signal of 1.29 z-score. “CCGATTAACATCAGGCATTCCCCTGATGTTAATCGGGTCTTGATTCGCTTGACGCTGCTG” gave a binding signal of 3.19 z-score. “CCGATTAACATCAGGGGAACTACTGATGTTAATCGGGTCTTGATTCGCTTGACGCTGCTG” showed a binding signal of 5.65 z-score.
